# The supplement of paper PMC8728848
# This is one part of the list.
# Key:
# Assay in all cases: glycan array binding signal (z-score within array); higher = stronger binding
# Details in all cases: glycan notation: IUPAC condensed, linker removed
# [1] = molecular target: Gal(b1-3)[Fuc(a1-4)]GlcNAc(b1-3)Gal(b1-4)[Fuc(a1-3)]GlcNAc
# Outline: (§1)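 Negative Z-scores can be read as non-binding. The Z-score is calculated within each array and then averaged across arrays of one protein sequence at different concentrations or buffers and across linkers. Arrays, 3228 in all, were curated from the Consortium for Functional Glycomics database and kept only where the protein sequence was available.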
# [2] = molecular target: Gal(b1-3)[GlcNAc(b1-6)]GalNAc
# Outline: as §1
# [3] = molecular target: Gal(b1-3)[Neu5Ac(a2-6)]GalNAc
# Outline: as §1
# [4] = molecular target: Gal(b1-3)[Neu5Ac(a2-6)]GlcNAc(b1-6)Gal(b1-4)Glc
# Outline: as §1
# [5] = molecular target: Gal(b1-3)[Neu5Ac(b2-6)]GalNAc
# Outline: as §1
# [6] = molecular target: Gal(b1-4)GalNAc(a1-3)[Fuc(a1-2)]Gal(b1-4)GlcNAc
# Outline: as §1
# [7] = molecular target: Gal(b1-4)GalNAc(b1-3)[Fuc(a1-2)]Gal(b1-4)GlcNAc
# Outline: as §1
# Gal(b1-4)Glc = molecular target: Gal(b1-4)Glc
# Outline: as §1
# Gal(b1-4)Glc6S = molecular target: Gal(b1-4)Glc6S
# Outline: as §1
# Gal(b1-4)GlcNAc = molecular target: Gal(b1-4)GlcNAc
# Outline: as §1
# [8] = molecular target: Gal(b1-4)GlcNAc(a1-6)Gal(b1-4)GlcNAc
# Outline: as §1
# [9] = molecular target: Gal(b1-4)GlcNAc(b1-2)Man(a1-3)[Gal(b1-4)GlcNAc(b1-2)Man(a1-6)]Man(b1-4)GlcNAc(b1-4)GlcNAc
# Outline: as §1
# [10] = molecular target: Gal(b1-4)GlcNAc(b1-3)Gal(b1-3)GlcNAc
# Outline: as §1
# [11] = molecular target: Gal(b1-4)GlcNAc(b1-3)Gal(b1-4)Glc
# Outline: as §1
# [12] = molecular target: Gal(b1-4)GlcNAc(b1-3)Gal(b1-4)GlcNAc
# Outline: as §1
# [13] = molecular target: Gal(b1-4)GlcNAc(b1-3)Gal(b1-4)GlcNAc(b1-3)Gal(b1-4)GlcNAc
# Outline: as §1
# [14] = molecular target: Gal(b1-4)GlcNAc(b1-3)Gal(b1-4)[Fuc(a1-3)]GlcNAc(b1-3)Gal(b1-4)[Fuc(a1-3)]GlcNAc
# Outline: as §1
# [15] = molecular target: Gal(b1-4)GlcNAc(b1-3)GalNAc
# Outline: as §1
# [16] = molecular target: Gal(b1-4)GlcNAc(b1-3)[Gal(b1-4)GlcNAc(b1-6)]Gal(b1-4)GlcNAc
# Outline: as §1
# [17] = molecular target: Gal(b1-4)GlcNAc(b1-3)[GlcNAc(b1-6)]Gal(b1-4)GlcNAc
# Outline: as §1
# [18] = molecular target: Gal(b1-4)GlcNAc(b1-6)Gal(b1-4)GlcNAc
# Outline: as §1
# [19] = molecular target: Gal(b1-4)GlcNAc(b1-6)Gal(b1-4)GlcNAc(b1-6)GalNAc
# Outline: as §1
# [20] = molecular target: Gal(b1-4)GlcNAc(b1-6)GalNAc
# Outline: as §1
# [21] = molecular target: Gal(b1-4)GlcNAc(b1-6)[Gal(b1-3)]GalNAc
# Outline: as §1
# Gal3S(b1-3)GalNAc = molecular target: Gal3S(b1-3)GalNAc
# Outline: as §1
# Gal3S(b1-3)GlcNAc = molecular target: Gal3S(b1-3)GlcNAc
# Outline: as §1
# [22] = molecular target: Gal3S(b1-3)[Fuc(a1-4)]GlcNAc
# Outline: as §1
# Gal3S(b1-4)Glc = molecular target: Gal3S(b1-4)Glc
# Outline: as §1
# Gal3S(b1-4)Glc6S = molecular target: Gal3S(b1-4)Glc6S
# Outline: as §1
# Gal3S(b1-4)GlcNAc = molecular target: Gal3S(b1-4)GlcNAc
# Outline: as §1
# Gal3S(b1-4)GlcNAc6S = molecular target: Gal3S(b1-4)GlcNAc6S
# Outline: as §1
# [23] = molecular target: Gal3S(b1-4)[Fuc(a1-3)]Glc
# Outline: as §1
# Gal3S4S(b1-4)GlcNAc = molecular target: Gal3S4S(b1-4)GlcNAc
# Outline: as §1
# Gal3S6S(b1-4)GlcNAc = molecular target: Gal3S6S(b1-4)GlcNAc
# Outline: as §1
# Gal3S6S(b1-4)GlcNAc6S = molecular target: Gal3S6S(b1-4)GlcNAc6S
# Outline: as §1
# Gal4S(b1-4)GlcNAc = molecular target: Gal4S(b1-4)GlcNAc
# Outline: as §1
# Gal4S6S(b1-4)GlcNAc = molecular target: Gal4S6S(b1-4)GlcNAc
# Outline: as §1
# Gal6S(b1-4)Glc = molecular target: Gal6S(b1-4)Glc
# Outline: as §1
# Gal6S(b1-4)Glc6S = molecular target: Gal6S(b1-4)Glc6S
# Outline: as §1
# Gal6S(b1-4)GlcNAc = molecular target: Gal6S(b1-4)GlcNAc
# Outline: as §1
# Gal6S(b1-4)GlcNAc6S = molecular target: Gal6S(b1-4)GlcNAc6S
# Outline: as §1
# GalNAc(a1-3)Gal = molecular target: GalNAc(a1-3)Gal
# Outline: as §1
# GalNAc(a1-3)GalNAc = molecular target: GalNAc(a1-3)GalNAc
# Outline: as §1
# GalNAc(b1-3)Gal = molecular target: GalNAc(b1-3)Gal
# Outline: as §1
# [24] = molecular target: GalNAc(b1-3)Gal(a1-4)Gal(b1-4)GlcNAc
# Outline: as §1
binder,measurement,setting,value
"SLR2P3F12 (Tachypleus tridentatus), TAL2_TACTR (protein) MEKGTPPTHDSDNWMGRAKKIGNGGWNQFQFLFFDPNGYLYAVSKDKLYKASPPQSDTDNWIARATEIGSGGWSGFKSLFFHPNGYLYAVHGQRLYKALPPVSNQD",glycan array binding signal (z-score),[1],-0.332
same,glycan array binding signal (z-score),[2],0.247
same,glycan array binding signal (z-score),[3],-0.362
same,glycan array binding signal (z-score),[4],0.693
same,glycan array binding signal (z-score),[5],-0.369
same,glycan array binding signal (z-score),[6],-0.208
same,glycan array binding signal (z-score),[7],-0.24
same,glycan array binding signal (z-score),Gal(b1-4)Glc,2.75
same,glycan array binding signal (z-score),Gal(b1-4)Glc6S,-0.248
same,glycan array binding signal (z-score),Gal(b1-4)GlcNAc,-0.208
same,glycan array binding signal (z-score),[8],-0.379
same,glycan array binding signal (z-score),[9],-0.213
same,glycan array binding signal (z-score),[10],-0.433
same,glycan array binding signal (z-score),[11],-0.261
same,glycan array binding signal (z-score),[12],-0.175
same,glycan array binding signal (z-score),[13],-0.342
same,glycan array binding signal (z-score),[14],0.091
same,glycan array binding signal (z-score),[15],-0.337
same,glycan array binding signal (z-score),[16],-0.434
same,glycan array binding signal (z-score),[17],-0.423
same,glycan array binding signal (z-score),[18],-0.406
same,glycan array binding signal (z-score),[19],-0.18
same,glycan array binding signal (z-score),[20],-0.561
same,glycan array binding signal (z-score),[21],-0.32
same,glycan array binding signal (z-score),Gal3S(b1-3)GalNAc,0.134
same,glycan array binding signal (z-score),Gal3S(b1-3)GlcNAc,-0.612
same,glycan array binding signal (z-score),[22],1.21
same,glycan array binding signal (z-score),Gal3S(b1-4)Glc,-0.387
same,glycan array binding signal (z-score),Gal3S(b1-4)Glc6S,0.365
same,glycan array binding signal (z-score),Gal3S(b1-4)GlcNAc,-0.459
same,glycan array binding signal (z-score),Gal3S(b1-4)GlcNAc6S,-0.207
same,glycan array binding signal (z-score),[23],-0.244
same,glycan array binding signal (z-score),Gal3S4S(b1-4)GlcNAc,-0.321
same,glycan array binding signal (z-score),Gal3S6S(b1-4)GlcNAc,0.076
same,glycan array binding signal (z-score),Gal3S6S(b1-4)GlcNAc6S,-0.418
same,glycan array binding signal (z-score),Gal4S(b1-4)GlcNAc,-0.445
same,glycan array binding signal (z-score),Gal4S6S(b1-4)GlcNAc,-0.057
same,glycan array binding signal (z-score),Gal6S(b1-4)Glc,-0.13
same,glycan array binding signal (z-score),Gal6S(b1-4)Glc6S,-0.145
same,glycan array binding signal (z-score),Gal6S(b1-4)GlcNAc,0.159
same,glycan array binding signal (z-score),Gal6S(b1-4)GlcNAc6S,-0.455
same,glycan array binding signal (z-score),GalNAc(a1-3)Gal,0.76
same,glycan array binding signal (z-score),GalNAc(a1-3)GalNAc,-0.138
same,glycan array binding signal (z-score),GalNAc(b1-3)Gal,-0.359
same,glycan array binding signal (z-score),[24],-0.295
